Read counts are not given, so values of variants with three or more changes are uncertain.
B1: LINE1-mini (parent)
chain: GGCAGAGCUCAACACAGCGUGGCAAAGUGGCUGUGGCUAGACUGCC

Variants of: B1
Test: self-cleavage, relative activity (ratio to wild type); higher = more cleavage; in vitro, sequencing; the parent is a self-cleaving ribozyme

Variant	self-cleavage
GGCAGAGCUCAACACAGCUUGGCAAAGAGGCUGUGCCUAGACUGCC [G19U U28A G36C]	0.05
GGCAGAUCUCAACACAGCGUGGCAAAGUGGCUGUGGCUAGCCGGCC [G7U A41C U43G]	0.14
GGCAGAGCUCAACACAGCGUGGCAAAGGGGCUGUCGCUAGAUUGCC [U28G G35C C42U]	0.07
GUCAGAGCUGAAAUCAGCGUGGCACAGUGGCUGUGGCUAGACUGCC [G2U C10G C13A A14U A25C]	0.01
GGUGGAGCUCAACACGGCGUGGCAAAGUGGCUGUGGAUAGACUGCC [C3U A4G A16G C37A]	0.22
GGCAGGGCUAAACACAGCUUGGCAAAGUGGCUGGGGCUAGACUGCC [A6G C10A G19U U34G]	0.02
CGGAGAGCUCAACACAGCGUGGCAAAGUCGCUAUGGGUAGACUGCC [G1C C3G G29C G33A C37G]	0.03
GGCAGAGCUCAACACAGCGUGGCCAAGUGGCUAUGGUUAGAUUCCC [A24C G33A C37U C42U G44C]	0.01
GGCAGAUCUCAACACAGCGUGGCAGAGUGUCUGUGGCUAGACUGCC [G7U A25G G30U]	0.06
GGCAGAGCUCAACACAGCGUGGCAAAGUAGCACUGGGUAGACUGCC [G29A U32A G33C C37G]	0.02
GGCAGAGCUCAACACUGCGUGGCAAAGUGGCUGUGGAUAUACUGCC [A16U C37A G40U]	0.04
GCCAGAGCGCUACACAGCGUGCCAAAGUCGCUCUGGCUCAACUGCC [G2C U9G A11U G22C G29C G33C A39C G40A]	0
GGCAGUGAUCAACACAGCGUGGCAAAGUGGCUUUGGCUAUACUGCC [A6U C8A G33U G40U]	0.18
GGCAGAGCAAAACACAGCGUGGCAAAGUGGCUGUGCCUAGACUGCC [U9A C10A G36C]	0.01
GGCAGAGCGCAAGACAGAGUGGCAAAGUGGCUGUGGCUAGACUGCC [U9G C13G C18A]	0.07
GGUAGAACUCAACACAGCGUUGCAAAGUGGCUGUGGCUAGACUGCC [C3U G7A G21U]	0.09
GGCAUGGCUCAACACAGCGGGGCAAAGUGGCUAUGGCUAGACUGCC [G5U A6G U20G G33A]	0.02
GGCAGAACUCAACACAGCAUGGCAAAGUGGCUGUGGCUAGACUACC [G7A G19A G44A]	0.61
GGCAGAGCCCAACACAGCUUGGCAAAGUGGCUGUGGCUAGCCUGCC [U9C G19U A41C]	0.02

Variant	self-cleavage
GUCAGAGCUCAACACUGCGUGGCAAAUUGGCUGUGGCUAGACUGCC [G2U A16U G27U]	0.02
GGCAGAGGUCAACACAGCGUGGCAAAGUGGCUGUGGUUAGAGUGCC [C8G C37U C42G]	0.01
GGCAGAGCUCAACACAGCGUGGCAAAAUGGCUUUAGCUGGACUGCC [G27A G33U G35A A39G]	0.06
GGCAGAGCUCAUCACAGCGUGGCCAAUUGGCUGUGGCCAGACUGCC [A12U A24C G27U U38C]	0.03
GGCAGAUCUCAACACCGCGUGGCAAGGUGGCUGUGGCUAGACUGCC [G7U A16C A26G]	0.33
GGCAGAGCUCAACUCAGCGUGGCAAUGUGGAUGUGGCUAGACUGCA [A14U A26U C31A C46A]	0.05
GGCCGAGCUUAACACAGCGUGGCAAAGGGGUUGUGGCUAGACUGCC [A4C C10U U28G C31U]	0.02
GGCAGAGCUCAACACAGAGUGGCAAAAUGGCAGUGGCUAGACUGCC [C18A G27A U32A]	0.03
GGCAGAGCCCAACACAGCGUUGCACAGUGGCAGUGGCUAGACUGCC [U9C G21U A25C U32A]	0.01
GGCAGAGCUCAACACGGGGUGGCAACGUGGCUGUCGCUAGACUGAC [A16G C18G A26C G35C C45A]	0.02
CGCAGAGCUCAAGAUAGCGUGGCAAAGUCGCUGUGGCUGGACUGCC [G1C C13G C15U G29C A39G]	0.03
GGCAGAGUACAACACAGCGUGUCAAAGCGGCUGUGGCUGGACGGCA [C8U U9A G22U U28C A39G U43G C46A]	0.04
GGCAGAGCUCUACGCAGAGUGGGAAAGUGGCUCUGGCUAGACUGCC [A11U A14G C18A C23G G33C]	0.02
GGCAUAGCUGAACAGAGCGUGGAAAAGUGGCUGUGGGUAGACUGCC [G5U C10G C15G C23A C37G]	0
GGCAGAGCUCCACACUGCGUGUCAAAGUGGCUGUGGCGAGACUGCC [A11C A16U G22U U38G]	0
GACAGAGCUCAACAUAGCGUGACAAAGUGGCUGUGGCUAGACUGCC [G2A C15U G22A]	0.5
UGCAAAGCUCAACACAGCGAGGCAAGGUGGCUGUGGCUAGACUGCC [G1U G5A U20A A26G]	0.09
GGCAGAGCUCAACACAGCGUGGCUAAGUGGCUGUGGCUAGAAUGAC [A24U C42A C45A]	0.54
GGCAGAGUUCAGCACAGCUUGGCAAAGUGGCUGUGGCUAGACUGCC [C8U A12G G19U]	0.01

Variant	self-cleavage
GGAAGAGCUCAACCCAGCUUGGCAAAGUGGCUGUAGCUAGACUGCC [C3A A14C G19U G35A]	0.15
GGCAGAGCUUAACACAGCGAGGCAAAGUGGCUGUGGCUUGACUUCA [C10U U20A A39U G44U C46A]	0.02
GGCAGCCCUCAACACAGGGUGGCAAAGUGGCUGUGGCUAGACUGCC [A6C G7C C18G]	0.05
AGCAGAGCUCAACCCUGCGUGGCAAAGUGGCUGUGGCUAGACUGCC [G1A A14C A16U]	0.03
GGCAGAGCUCAACACGGCGUGGCAAAUUGGCUGUGGCUAGACUGGC [A16G G27U C45G]	0.02
GGCAGAGUUUAACCCAGCGUGGCAAAGUGGCUGUGGCUAGACUGCC [C8U C10U A14C]	0.05
GGCACAGCUCAACACAGCCUGGUAAUGUGGCUGUGGCUAGACUGCC [G5C G19C C23U A26U]	0.04
GGCAGGGCUCAACACAGCGAGGCAAAGUGGCUGUGGCUAGACUACC [A6G U20A G44A]	0.03
GGCAGAGCUGAACACGGCGUGGCAAAGUGGCUGUGGCUACACUGCC [C10G A16G G40C]	0.01
GGCAGCGUUCAACACAGCGUGGCAAAGUAGCUGUGGCUAGACUGCC [A6C C8U G29A]	0.08
GGCAGAGGUCAACACAGCGUGACAAAGUGGCUGUGGCUAUACUGCC [C8G G22A G40U]	0.05
GGCAGAGCUAAACAUACCGUGGCAAAGUGGCUGUGGCUAGACUGCC [C10A C15U G17C]	0.04
GGCAGAGCUCAACACCGGGUGGCGAAGUGGCUGUGGCUAGACUGCC [A16C C18G A24G]	0.15
GGCAGAGCUCAACUCAGCGUGGCAAAGUGUCUGUGGUUAGACUGCC [A14U G30U C37U]	0.02
GGCGGAGCUCAACACAGCGAGGGAAAGUGGCUGUGGCUAGACUGCC [A4G U20A C23G]	0.12
GACAGAGCUCAAAACAGCGUGGAAGUGUGGCUGUGGCUAGACUGCC [G2A C13A C23A A25G A26U]	0.25
GGCAGAGCUCAGUACAGCGUGGCAAUCUGGCUGUGGCUAGACUGCC [A12G C13U A26U G27C]	0.05
GGCAGACCUCAACACAGCGUGGCAAAGUGGCUGUGGCUAGAGUGCU [G7C C42G C46U]	0.04
